The supplement of paper PMC10126150
Sequences with one replicate were seen in a single cluster, so their values are uncertain.

System: ATP
Experiment: switch fluorescence ratio, 500 uM ATP over buffer (Cy3 cluster intensity, sum of 5 cycles each) (fold (ratio)); higher = stronger signal-on switching upon ATP binding; sequences stand for … in TCGTCGGCAGCGTCAGATGTGTATAAGAGACAGTTTTTTTTTTTTTTTTTTTTTTTTT…TC
Conditions: aptamer strand: ATP DNA aptamer (quencher-CACCTGGGGGAGTATTGCGGAGGAAGG + anchor), 100 nM annealed; ATP concentration: 500 uM; one replicate
Method in brief: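 Values give the fluorescence ratio for each switch-domain sequence, averaged from per-cluster ratios of summed target-cycle to summed buffer-cycle Cy3 intensity. The Cy3-labelled switching-strand clusters sat on a modified Illumina MiSeq flow-cell, were annealed to 100 nM quencher-labelled ATP aptamer, and were imaged in selection buffer, then after 15 min with 500 uM ATP at 22 °C. Five cycles ran with NaOH stripping and re-annealing between them, and clusters outside 100-1000 RFU were excluded.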
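Note: ATP exposure 15 min at 22 °C before imaging.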

Sequence | switch fluorescence ratio
CAGCTCGGCG | 0.981
GAATCCCCGT | 1.03
CTTCTTGTAT | 1.02
CAAAAGACGA | 1.48
GTTTTCAATA | 0.945
ATAATAGTTA | 1
CAGGTGTCGT | 1.04
GCTTCGTAGC | 1.03
AAAATACCCG | 1.07
GTAAGCCTAG | 1.02
CAGCGTGGGA | 1.03
GGCCACGAAA | 1.03
AAGTCCTTTT | 1.05
GCGAGCCTAG | 0.987
GGTCAAAGCG | 0.963
CTACTATTAT | 1.01
GCAATTAGAG | 1.07
GGCTCATCTA | 1.01
TGAGCACTT | 1.3
GTTGTCACGG | 0.99
CGTAGTCGAT | 1.01
TGGCCTGCTT | 0.974
TTCAGCGACG | 0.996

Sequence | switch fluorescence ratio
TTCCTTGACA | 1.04
AAGATACGAT | 1.04
GAGAGGGGCC | 0.965
TGAAGAGGCG | 0.992
CGTGTAATTA | 1.02
CTTTTCAGTG | 0.948
TAAGAAGCCC | 0.903
ACGTTGTCAG | 1.03
TTTGGTAGGT | 0.998
ACATCCAGCG | 1.12
TAGACACAGT | 0.983
GGAAGAACCA | 1.07
CAGGTAGGGC | 1.01
GACAAAAGGA | 1.02
TAGGTGAGCT | 1.06
GGGCTCGACC | 1.1
AAGATCCCGG | 1
CGCGATTACT | 4.06
TTTAAGAGGA | 1.03
GAGTCGTTCT | 0.939
TCTGAGCCAC | 1.27
CATAATATAT | 1.04
TTTAGCTCT | 0.975

Sequence | switch fluorescence ratio
CGAACCGGGC | 1.13
GGCGCCACGT | 0.991
CAAGACCAGT | 0.985
GGATGGAG | 0.977
TCCGGCACA | 1.68
CGTTGAGGA | 0.993
TCCGAGTGCA | 2.81
TTGGCGTCT | 1.21
CATGGTGCGA | 1.04
ATTCTGCCGG | 0.973
TCATTACAGG | 1.15
GACTGGGTCA | 0.978
AAGCAAGGTA | 1.03
TGCAGCCCCG | 1.06
GCTTTTCCGT | 1.06
AAAGGAAAGA | 1.08
GCACACTCAC | 1.59
TTAACCAGGT | 1.08
TGGGTGTGCC | 0.98
ATGGAGGTT | 0.946
CTGATGTGGT | 0.973
ACTTAGTTCC | 1.06
TAAACCCCGC | 1.26

Sequence | switch fluorescence ratio
GACAAAGGTT | 1.04
TCCGAGAGTT | 1.11
GCTATCTTCA | 1.07
GAACCGTCGT | 1.04
AGGTTAGCGC | 0.924
AGTTTAGTAG | 0.966
AAATGTTGTG | 0.978
CTCTACTTAC | 1.63
GGTTGGAGGG | 0.999
ACTAGGTCGA | 1.02
GTTTAAGAAT | 0.968
CGCATAAGTC | 1.56
CGTTATGCTT | 0.979
CGGAGGCTT | 1.1
TGACACGTAT | 1.15
CCGGTATAAA | 1.06
ATGGACGTCA | 0.994
ACGTCTATTG | 1.03
GTCGCGAGGC | 1.37
CGGGGATAAT | 1.03
AGAGTTTGCA | 0.983
TCTTAAGGC | 0.926
GATCAACGCC | 1.06

Sequence | switch fluorescence ratio
AAGCAGTGTT | 0.974
GAAGAATATG | 0.995
TTAACCAAAG | 0.962
GCAAACTGTG | 1.06
AAGTGGGCTC | 0.966
TTACCCCAAG | 1.06
AAAGCAAAGC | 1.07
TGGCTTATGG | 0.948
ATAAACCCC | 1.03
TCGGTGGAAT | 0.998
TGAGCACG | 1.06
TGCAAATGGC | 1.08
TTTGGTATTC | 1.05
GGCCTTTTAC | 1.04
CCTATGTACA | 1.01
TGCCTATTGG | 0.96
GTACTTCC | 2.66
GGCTATAGTG | 1
TAGATGGTGC | 1.03
CAACAAACT | 1.02
TTTGAAAA | 1.02
GATCAATGT | 0.965
TGGGCCACGC | 0.976

Sequence | switch fluorescence ratio
GAGGGATCCA | 0.99
GTTGAACGTA | 1.04
GCGTTGGAGG | 0.994
CTCTGCGCTA | 3.79
TCGCTTGAAT | 0.985
TGACTTGCGC | 0.986
AACGTATAGG | 1.03
CCGGTACGAT | 1.15
GGGGCGAGTT | 1.02
CGAGATTCAC | 1.01
CGGTTCTTGC | 1.02
GTGCGCAGTG | 1.04
GGTAGAGTTC | 1.03
TTCAAATTCA | 1.15
CGCAGCTGTA | 1.19
CGCAGTTCCC | 2.69
CCTGCCGCGG | 2.58
ACGTAGACGA | 1.11
GGTCGATAGG | 0.996
TATGCGTTTC | 1.02
GATCAACTCC | 1.04
GAAGTTAAGG | 0.956
GACCAGTTTT | 0.983

Sequence | switch fluorescence ratio
GCTGCTCGAT | 1.01
TAAGTAGCA | 1.03
TTTAGTATAT | 0.994
TATTGCGCC | 1.01
CCGCCTTTGT | 1.15
GAAATTAGT | 1.05
AAAGAGGTAA | 0.973
GCGGCGAACG | 0.964
TATGGGCCCC | 1.06
TAGATAGCTG | 0.924
GCCGCTCTC | 1.08
ACGCGCTAGA | 1
TAAGTTCCCG | 0.99
CATTCCCACG | 1.23
CAAGATTAGT | 0.993
TACTTCCTT | 1.07
AGTATTTGCG | 0.964
ACCGGGTATG | 1.05
GGTCGGGACT | 1.04
CAGGGTATGC | 0.997
